# Measured values taken from ChEMBL document CHEMBL4888484, “Replenishing the malaria drug discovery pipeline: Screening and hit evaluation of the MMV Hit Generation Library 1 (HGL1) against asexual blood stage Plasmodium falciparum ,using a nano luciferase reporter read-out” (2022).
# Hit rate of the full screen: of about 150,000 compounds, about 540 (0.36%) showed an effect of 50% or more. Some of the results follow.
# System: Plasmodium falciparum
# Test: Primary screen in NF54 nanoGlo assay, in single point, at 2uM, 72h; a lower Z score goes with more inhibition
# Type: functional, Erythrocyte
# Conditions: timepoint 72 hour
SMILES,% Inhibition,Z score
O=S(=O)(c1ccc2c(c1)CCCC2)N(CCN1CCCCC1)[C@H]1CCNC1,8%,-1.23
CN(Cc1nnc(C2CCC2)o1)c1cccc(O)c1,-2%,0.25
Cn1c(NC(=O)CCCCC(N)=O)nc2cccc(Cl)c21,-1%,0.14
CCC(=O)NCCc1csc(C2CCN(C(=O)Nc3ccc(C)cc3)CC2)n1,-3%,0.31
C#CCNC(=O)CC(=O)NCCOc1cccc(Cl)c1Cl,-4%,0.58
COc1cccc(-c2nc3c(OCc4ccccc4)cccn3c2NC2CCCCC2)c1,-9%,1.55
CCCC(=O)N1C[C@H](C(=O)O)[C@@H](c2ccccc2OC)C1,2%,-0.3
O=C(NC1CCOC1c1ccc(F)c(F)c1)N1CCC(CO)CC1 (stereo not given),-2%,0.3
O=C(c1ccco1)N1CCN(c2ccc(C(F)(F)F)nn2)CC1,-5%,0.54
O=c1[nH]c(CNc2nc(C3CC3)nc3c2CCC3)nc2c1COCC2,-10%,1.9
CCc1cnc(N)nc1N1CCN(c2nccc(OC)n2)CC1,-15%,2.49
Cc1csc([C@H](C)NC(=O)c2c[nH]c(=O)c(Cl)c2)n1,-13%,1.33
Cn1c(Cc2cn3ccccc3n2)nnc1N1CCOC(C)(C)C1,-2%,0.2
COCc1nc(Cn2cnc(-c3ccccc3)c2-c2cc(C)cc(C)c2)no1,-2%,0.39
C=CCN1CCC(N[C@H]2CCc3ccccc3C2)CC1,-9%,0.87
Cn1cncc1-c1ccc(C(=O)N2CCN(c3cnccn3)CC2)cc1,-7%,1.13
COc1ccc2cc1Oc1cccc(c1)CO[C@H]1CN(c3cc(C(=O)N4CCOCC4)ccn3)C[C@@H]1NC(=O)CN(C)C2,1%,-0.17
CC(C)(C)C1CCC2(CC1)NCCN=C2NCc1cccc(F)c1 (stereo not given),-2%,0.23
CN(C)S(=O)(=O)Nc1ccn(-c2ccc(C#N)cc2F)n1,3%,-0.54
O=C(Cc1cccs1)N1CCN(c2ccccc2F)CC1,-3%,0.51
O=C(NC(c1ccccc1)c1ccccc1)c1cc2c(s1)CCCC2,5%,-0.49
COc1cccc(OC2CN(C[C@H]3COc4ccccc4O3)C2)c1,3%,-0.59
C[C@H]1CCCN(C(=O)CCN2C(=O)c3ccccc3C2=O)C1,-6%,1.15
Cc1nc(C)c(Br)c(N2CCN(c3ccnnc3)CC2)n1,-15%,3.02
Cn1nnc2c1CCN(C(=O)C1CCN(S(=O)(=O)c3ccc4c(c3)CCC4)CC1)C2,-9%,0.97
O=C(c1ccccc1F)N(Cc1nccn1Cc1c(F)cccc1Cl)C1CC1,45%,-6.44
CCN(CC)CCOc1ccc(C#N)cc1,12%,-2.2
CC1(C)CCC(F)C1NCC1CCCNC1=O (stereo not given),-14%,2.16

SMILES,% Inhibition,Z score
Cc1cc(=O)cc(C(=O)NC2(c3ccccc3C)CC2)[nH]1,-9%,1.31
CNS(=O)(=O)CCCN[C@@H](C)c1cccc(C)c1C,-10%,0.9
Nc1nnnn1CC(=O)N[C@H]1CCC[C@H]1Cc1ccc(F)cc1,-8%,1.1
O=C(NC1CCOCC1)c1ccc(-c2ccc(F)c(F)c2F)cn1,34%,-4.63
C[C@H]1CCCN(c2nc(-c3cnn(C)c3)cs2)C1,15%,-2.04
Cc1ccc(-c2n[nH]c(C3CC3)c2NC(=O)Cc2cccs2)c(C)c1,4%,-0.55
CCCN1C(=O)N[C@@H](Cc2nc(C)nn2-c2ccc(C)cc2C)C1=O,-2%,0.33
Cc1nnc(NCc2cc3n(n2)CCCN(CC(C)C)C3)o1,-19%,1.77
CS(=O)(=O)[C@H]1CCCN(C(=O)c2cc3ccccc3s2)CC1,-9%,1.64
O=C(C[C@H]1COCCN1)Nc1nncn1Cc1ccccc1,-8%,1.45
O=C(CCCN1C(=O)c2cccnc2Oc2ccccc21)NCc1ccc(F)cc1,-1%,0.15
O=C1CN(CCc2ccccc2)C(=O)N1c1cc(-c2ccccc2)ns1,-14%,2.16
c1ccc(-c2cn[nH]c2C2CCN(c3cnccn3)CC2)cc1,1%,-0.25
O=C(O)c1ccc(CC(=O)N2CCC3(c4ccccc4)C(C2)C3(F)F)cc1 (stereo not given),-5%,0.85
COc1cccc(N2CCN(C(=O)[C@H]3CC(=O)N(c4ccc5oc(C)nc5c4)C3)CC2)c1,5%,-0.94
O=C(CCC1CCCC1)N[C@H]1CCN(c2ccc(=O)[nH]n2)C1,-13%,1.68
CC(C)c1cc(NC(=O)NCc2ccc3c(c2)CC(C)(C)O3)n(C)n1,-2%,0.4
O=S(=O)(NC1(C(F)(F)F)CCOCC1)c1ccc(Cl)cc1,-3%,0.33
O=C(NC(CO)C(O)c1ccccc1)C(F)(F)F (stereo not given),0%,0.04
Cc1ccc2c(C(=O)Nc3ccc4c(c3)OCCO4)cc(NC(=O)C(C)C)cc2n1,-11%,1.6
Cc1cc(F)ccc1S(=O)(=O)N1CC[C@H](n2ccnn2)C1,-17%,2.19
O=C1[C@@H]2CCCN2C(=O)N1CCOCC(F)(F)C(F)F,-9%,1.18
CCCC[C@H](CC)CNC(=O)c1scnc1C,3%,-0.3
CC(=O)c1cnc(N2C[C@@H]3[C@H](C2)[C@H]2CC[C@@H]3O2)nc1C,-12%,1.97
COc1ccc(C2(NCc3cn(C)cn3)CCOCC2)cc1F,-13%,1.52
COc1ccccc1C1(CNC(=O)C2CCCCC2)CCOCC1,-2%,0.33
O=C(CCc1ccccc1)N1CCC(F)(C(=O)N2CCOCC2)CC1,-1%,0.16
